PubChem BioAssay AID1030 (National Center for Advancing Translational Sciences (NCATS), 2008)
Hit rate of the full screen: of about 220,000 compounds, about 16,000 (7.3%) were called active. This list was built around the results that the source calls inconclusive (neither active nor inactive); the mix of calls is not that of the screen. Calls come from the whole dose curve; as a rule, active = well fitted inhibition curve with a large enough effect (not every such curve was filed as active); inconclusive = small, poorly fitted or top-dose-only effect, or another doubt; inactive = no such curve, though single readings can be large or run the other way. Potencies of inconclusive entries are doubtful fits and often do not repeat.

Target: Aldehyde dehydrogenase 1A1 (Homo sapiens) (UniProt P00352)
Chain of UniProt P00352 (P00352 whole entry, looked up): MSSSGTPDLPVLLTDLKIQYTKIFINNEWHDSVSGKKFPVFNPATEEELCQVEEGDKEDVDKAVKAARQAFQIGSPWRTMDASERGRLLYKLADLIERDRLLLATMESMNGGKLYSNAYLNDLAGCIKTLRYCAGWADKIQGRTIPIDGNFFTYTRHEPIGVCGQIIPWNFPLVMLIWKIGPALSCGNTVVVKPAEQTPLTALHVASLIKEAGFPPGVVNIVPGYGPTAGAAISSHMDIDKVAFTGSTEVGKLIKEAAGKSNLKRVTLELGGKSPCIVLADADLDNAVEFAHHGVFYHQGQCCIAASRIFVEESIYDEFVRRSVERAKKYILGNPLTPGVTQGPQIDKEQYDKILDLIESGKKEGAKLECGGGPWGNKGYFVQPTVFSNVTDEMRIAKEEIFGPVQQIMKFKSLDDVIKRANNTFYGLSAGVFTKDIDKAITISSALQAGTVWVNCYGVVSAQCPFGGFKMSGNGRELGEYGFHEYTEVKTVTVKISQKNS
Assay: qHTS Assay for Inhibitors of Aldehyde Dehydrogenase 1 (ALDH1A1)
Conditions: Purified ALDH1A1, NADH fluorescence, propionaldehyde substrate; series mostly up to 75.3 µM
Potency is the fitted concentration of half-maximal effect; tags give direction and shape of the fitted curve.

Potency, inconclusive:
CC(c1ccccc1)N1CNc2c(c(=O)n(C)c(=O)n2C)C1 (stereo unspecified) 28.2 µM [inhibitor, single point]
Cc1nc(-c2ccc(S(=O)(=O)N3CCCCCC3)cc2)cs1 35.5 µM [inhibitor, single point]
Cc1sc2ncnc(SCC(=O)N3CCC(c4noc5ccc(F)cc45)CC3)c2c1C 7.94 µM [inhibitor, full curve]
CCOc1ccccc1CNCCNCC(C)O (stereo unspecified) 39.8 µM [inhibitor, single point]
c1ccc2c(c1)ccc1ccccc12 35.5 µM [inhibitor, single point]
Cc1ccc(C(=O)Nc2ccc(C(=O)N/N=C/c3ccncc3)cc2)cc1 1.89 µM [inhibitor, full curve, poor fit]
COc1cc(C)c(NC(=O)C(=S)NCc2ccccc2)cc1C 39.8 µM [inhibitor, single point]
O=C1COc2ccc(C(=O)c3ccccc3)cc2CN1 39.8 µM [inhibitor, single point]
C#CCOCCOCCOCCNc1nc(N2CCN(C(=O)C([C@@H](C)CC)n3cc(C(N)Cc4ccc(O)cc4)nn3)CC2)nc(N2CCN(C(=O)[C@H](CCC(=O)O)n3cc(C(N)Cc4ccc(O)cc4)nn3)CC2)n1 (stereo partly specified) 31.6 µM [inhibitor, partial curve]
COCCNC(=O)c1nc2c(nnn2Cc2cc(C)ccc2C)c(=O)[nH]1 39.8 µM [inhibitor, single point]
COc1ccc(NC(=O)C(c2ccccc2)c2ccccc2)cn1 39.8 µM [inhibitor, single point]
Cn1c[n+](C)cc1-c1ccc(/C(N)=N/O)cc1 39.8 µM [inhibitor, single point]
Oc1c(C(c2ccc(F)cc2)N2CCc3ccccc3C2)sc2ncnn12 (stereo unspecified) 22.4 µM [inhibitor, partial curve]
COc1cc2ccccc2cc1C(=O)OCC(=O)N1CCOCC1 28.2 µM [inhibitor, partial curve]
COc1ccc(Nc2c(-c3ccc(OC)cc3)nc3cnccn23)cc1 39.8 µM [inhibitor, single point]
N#Cc1cc(-c2ccc(Cl)cc2)cnc1Sc1ccccc1 35.5 µM [inhibitor, single point]
Cc1nn(-c2ccccc2)c(/N=C/c2ccccc2O)c1-c1ccccc1 5.01 µM [inhibitor, full curve]
CCOc1ccc(Nc2cc(=O)oc3ccccc23)cc1 31.6 µM [inhibitor, partial curve]
Cc1ccc(-c2nc3ccccc3c(=O)n2NC(=S)N(C)C)cc1 31.6 µM [inhibitor, single point]
CN(C)CCCNC(=O)c1ccc2[nH]c3ccccc3c2c1 11.2 µM [inhibitor, partial curve]
Cc1ccc2c(c1)cc1c(=O)[nH]ncn12 39.8 µM [inhibitor, single point]
c1ccc(-n2cnc3cc(NCc4ccncc4)ccc32)cc1 17.8 µM [inhibitor, partial curve]
CCOC(=O)c1ccc(NC(=S)NCCc2ccccc2F)cc1 39.8 µM [inhibitor, single point]
O=c1[nH]c(N/N=C\c2ccc3c(c2)OCO3)nc2ccccc12 31.6 µM [inhibitor, single point]
Cc1ccccc1/C=C1\CCCc2ccccc2C1=O 14.1 µM [inhibitor, partial curve]
Cn1cnnc1SCCn1c(N2CCCCC2)nc2c1c(=O)[nH]c(=O)n2C 39.8 µM [inhibitor, single point]
O=C(O)c1cc(C(=O)O)cc(-c2ccc(/C=c3/sc4nc5ccccc5n4c3=O)o2)c1 0.794 µM [inhibitor, full curve]
CSCC[C@H](NC(=O)OC(C)(C)C)C(=O)N/N=C/c1cc2ccc(C)cc2nc1Cl 39.8 µM [inhibitor, single point]
O=C(NCc1ccco1)c1cc2sccc2n1Cc1ccccc1 35.5 µM [inhibitor, single point]
COc1ccc(N2Cc3ccccc3C2=NC(=O)c2ccc(C)cc2)cc1OC 39.8 µM [inhibitor, single point]

Potency, active:
Cc1ccc(/C=C/C(=O)Nc2ccc(S(N)(=O)=O)cc2)o1 25.1 µM
COC(=O)Cn1c(=NC(=O)c2ccc([N+](=O)[O-])s2)sc2cc(Br)ccc21 8.91 µM
Nc1nc(-c2ccccc2)c(N=Nc2ccc(Cl)cc2)s1 28.2 µM
CN1CC2([N+](=O)[O-])CC=C(Oc3ccccc3)C([N+](=O)[O-])(C1)C2 (stereo unspecified) 2.82 µM
Cc1cc(C=C2C(=O)c3ccccc3C2=O)c(C)n1-c1ccc(C(=O)O)cc1 5.62 µM

Potency, inactive:
Cc1onc(-c2c(F)cccc2Cl)c1C(=O)NC(=S)NC1CCS(=O)(=O)C1 (stereo unspecified)
CC(C)(C)c1ccc(C2(C)NC(=O)N(CC(=O)c3ccc[nH]3)C2=O)cc1 (stereo unspecified)
CCc1nc(SCC(=O)O)c(C#N)cc1C
CCOC(=O)N1CCC(NC(=O)CCN2C(=O)C3C4C=CC(C4)C3C2=O)CC1 (stereo unspecified)
O=[N+]([O-])c1cccc(C(=Nc2ccccc2)NO)c1
Cc1cc(-c2nnc(-c3cccc(Cl)c3)o2)no1
COc1ccc(N/C(C)=C/C(=O)c2ccccc2)cc1
O=C(O)c1ccc(N2C(=O)c3cccc(Oc4ccc(Cl)cc4)c3C2=O)cc1
COc1ccc(N2CC(C)Cn3c2nc2c3c(=O)n(CCc3ccccc3)c(=O)n2C)cc1 (stereo unspecified)
Cc1cc(=O)oc2c(C(=O)/C=C/c3ccccc3)c(O)ccc12
Cc1ccc(C(=O)Cn2c(NCCO)nc3ccccc32)cc1
